The campaign covered roughly 39,000 compounds. About 220 (0.56%) showed activity. Some of the results follow.
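Also: static incubation at 37 °C against the wild-type strain, values averaged over two biological replicates.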

For the assay, the system named is Escherichia coli K-12 BW25113. Description: relative growth (OD600 normalised to plate interquartile mean) (fraction); higher = less growth inhibition, active = 0.2 or less. The following applies: 50 µM; LB; incubation time: overnight (16-24 h).
In the case of `CN1CCN(C(=O)C[C@H]2CC[C@H](NC(=O)Cc3ccccn3)[C@H](CO)O2)CC1`, the relative growth is inactive: 1.05.
Turning to `COc1ccc(CN(C)C[C@@H]2OCCCC[C@H](C)Oc3ccc(NS(=O)(=O)c4cccs4)cc3C(=O)N([C@H](C)CO)C[C@H]2C)cc1`, the relative growth is inactive: 1.01.
For `C=CCC[C@@H](Cc1ccc(F)cc1)C(=O)OC[C@@H](Cc1ccccc1)NC(=O)[C@H](CC=C)CC(=O)N(CCO)Cc1ccccc1`, the relative growth is inactive: 1.12.
For `C[C@H](CO)N1C[C@H](C)[C@H](CN(C)C(=O)NC2CCCCC2)Oc2ccc(NC(=O)Cn3cnnn3)cc2C1=O` the value was inactive: 1.02; for `O=C(C1=C[C@H](c2coc3ccccc3c2=O)C[C@H](OCc2ccc(CO)cc2)O1)N1CCCCCCC1`, inactive: 1.02.
The value for `Cc1noc(C)c1NC(=O)N(C)C[C@H]1Oc2c(NS(=O)(=O)c3ccccc3)cccc2C(=O)N([C@H](C)CO)C[C@H]1C` was inactive: 1.02.
As to `C[C@@H]1CN([C@H](C)CO)C(=O)Cc2cc(NC(=O)Nc3ccc4c(c3)OCO4)ccc2O[C@@H]1CN(C)C(=O)Nc1cccc2ccccc12`, the relative growth is inactive: 1.04.
For `C[C@H](CO)N1C[C@H](C)[C@H](CN(C)CC2CCCCC2)OCCCC[C@H](C)Oc2ccc(NS(=O)(=O)c3cccs3)cc2C1=O`, the relative growth is inactive: 1.01.
For `Cc1ccc(S(=O)(=O)N[C@H]2C=C[C@@H](CC(=O)NCCN3CCCCC3)O[C@H]2CO)cc1` the value was inactive: 1.02.
For `O=C(O)c1ccco1` the value was inactive: 0.988; for `CCOC(=O)N(C)C[C@H]1OCc2cn(nn2)CCCC(=O)N([C@@H](C)CO)C[C@@H]1C`, inactive: 0.988.
The value for `CCC(=O)N1CCC[C@H](C(=O)O)C1` was inactive: 0.987; that for `C[C@@H]1CN([C@@H](C)CO)S(=O)(=O)c2ccc(C#C[C@@H](C)O)cc2O[C@H]1CN(C)C(=O)C1CCCCC1` was inactive: 1.01; that for `C[C@@H]1CN([C@@H](C)CO)C(=O)c2cccc(NC(=O)c3cnccn3)c2O[C@H]1CN(C)Cc1ccc2c(c1)OCO2` was inactive: 0.998.
As to `C[C@@H]1CN([C@H](C)CO)C(=O)c2cccc(NS(=O)(=O)c3cccs3)c2O[C@@H]1CN(C)Cc1ccc(Cl)c(Cl)c1`, the relative growth was inactive: 0.999.
Consider `O=C(O)/C=C\C(=O)NCc1ccccc1`, for which the relative growth was inactive: 0.96.
For `C/C=C/c1cccc(-c2nc(C(=O)NCc3ccc(OC)cc3)cc3c2[C@H](CCO)N([S@@](=O)C(C)(C)C)C3)c1` the value was inactive: 1.02; for `Cn1c(=O)c2c(ncn2C[C@@H](O)CO)n(C)c1=O`, inactive: 1.02.
For `CO[C@@H]1CN(C)C(=O)c2cc(NC(=O)NC(C)C)ccc2OC[C@H](C)N(Cc2ccc(-c3ccccn3)cc2)C[C@@H]1C`, the relative growth was inactive: 0.979.
The value for `Cc1ccc(S(=O)(=O)N(C)C[C@@H]2Oc3ccc(NS(=O)(=O)c4cn(C)cn4)cc3CC(=O)N([C@H](C)CO)C[C@H]2C)cc1` was inactive: 1.02.
For `Cc1ccc(S(=O)(=O)N(C)C[C@@H]2Oc3ccc(NS(=O)(=O)c4c(C)noc4C)cc3CC(=O)N([C@H](C)CO)C[C@H]2C)cc1` the value was inactive: 0.983; for `C[C@H]1CN([C@@H](C)CO)C(=O)Cc2cc(NC(=O)Nc3cccc4ccccc34)ccc2O[C@@H]1CN(C)C(=O)Nc1cccc2ccccc12`, inactive: 0.984; for `C[C@@H]1CN([C@H](C)CO)C(=O)c2cc(NC(=O)Nc3ccc4c(c3)OCO4)ccc2O[C@@H]1CN(C)C(=O)Nc1cccc2ccccc12`, inactive: 1.02.
The value for `COc1ccc(S(=O)(=O)Nc2cccc3c2O[C@H](CN(C)CC2CC2)[C@@H](C)CN([C@H](C)CO)C3=O)cc1` was inactive: 0.985; that for `C[C@H](CO)N1C[C@H](C)[C@H](CN(C)S(C)(=O)=O)Oc2ccc(NS(=O)(=O)c3ccccc3)cc2CC1=O` was inactive: 1.02.
On to `C[C@H](CO)N1C[C@H](C)[C@@H](CN(C)C(=O)c2cnccn2)Oc2ncc(C#Cc3ccccn3)cc2C1=O`, for which the relative growth is inactive: 1.
The value for `C[C@@H]1CCCCO[C@@H](CN(C)C(=O)CCCN(C)C)[C@@H](C)CN([C@@H](C)CO)C(=O)c2cc(NC(=O)Nc3ccc(C(F)(F)F)cc3)ccc2O1` was inactive: 0.951; that for `COc1cccc(-c2ccc3c(c2)O[C@@H](CN(C)Cc2cncnc2)[C@@H](C)CN([C@H](C)CO)S3(=O)=O)c1` was inactive: 1.
For `CCC(=O)N[C@H]1C=C[C@H](CC(=O)OC)O[C@H]1CO` the value was inactive: 0.995; for `C[C@@H]1CCCCO[C@H](CN(C)Cc2ccc(C(=O)O)cc2)[C@@H](C)CN([C@H](C)CO)C(=O)c2cc(NC(=O)Nc3ccc(C(F)(F)F)cc3)ccc2O1`, inactive: 0.96.
As to `C[C@H]1CCCCO[C@H](CN(C)CC2CCCCC2)[C@@H](C)CN([C@@H](C)CO)C(=O)c2cc(NS(=O)(=O)c3ccccc3)ccc2O1`, the relative growth was inactive: 0.999.
For the compound `C[C@H](CO)N1C[C@H](C)[C@@H](CN(C)C(=O)c2cnccn2)Oc2cc(Br)ccc2S1(=O)=O`, the relative growth was inactive: 0.986.
`CCC1OC(=O)CC(O)C(C)C(OC2OC(C)C(OC3CC(C)(O)C(O)C(C)O3)C(N(C)C)C2O)C(CC=O)CC(C)C(=O)C=CC(C)=CC1COC1OC(C)C(O)C(OC)C1OC.O=C(O)C(O)C(O)C(=O)O` (stereo not given): the relative growth was inactive: 1.09.
As for `COCCn1cc2c(n1)[C@H](CNC(=O)CS(C)(=O)=O)OCC2`, the relative growth is inactive: 0.998.
For `COc1ccccc1-c1ccc2c(c1)O[C@@H](CN(C)C(=O)c1ccncc1)[C@H](C)CN([C@@H](C)CO)S2(=O)=O` the value was inactive: 1.03.
The value for `C[C@H]1CN([C@@H](C)CO)C(=O)c2cc(NS(=O)(=O)c3ccc(F)cc3)ccc2O[C@H]1CN(C)S(=O)(=O)c1ccc(F)cc1` was inactive: 1.01; that for `Cc1ccc(-c2cnc3c(c2)C(=O)N([C@@H](C)CO)C[C@@H](C)[C@H](CN(C)C(=O)Cc2cccnc2)O3)cc1` was inactive: 0.987.
As for `CNCc1nc(C)no1`, the relative growth is inactive: 1.03.
The value for `O=C(C[C@H]1CC[C@@H]2[C@H](COC[C@H](O)CN2C(=O)c2ccccc2)O1)NCCCN1CCOCC1` was inactive: 0.99; that for `C[C@H](CO)N1C[C@H](C)[C@H](CN(C)Cc2ccc(Cl)c(Cl)c2)Oc2ccc(NC(=O)Nc3ccc4c(c3)OCO4)cc2C1=O` was inactive: 1.01.
